From patent publication US4248863A, “Antibiotics saframycins A, B, C, D and E and process for producing the same” (priority 1977, dated 1981)

System: cultured cells of L 1210 in mouse leukemia
Test: Inhibition of growth of cultured cells of L 1210 mouse leukemia
Settings: for IC100: Mus musculus, L1210, read-out: concentration that can completely inhibit the cell growth; for concentration that can completely inhibit the cell growth: cultured cells of L 1210 in mouse leukemia

Compound | IC100 [µg/mL] | concentration that can completely inhibit the cell growth [µg/mL]
COC1=C(C)C(=O)C2=C(C1=O)C1C3CC4=C(C(=O)C(OC)=C(C)C4=O)C(CNC(=O)C(C)=O)N3C(C#N)C(C2)N1C (centres unmarked) [saframycin A] | 0.02 | 
COC1=C(C)C(=O)C2=C(C1=O)[C@H](CNC(=O)C(C)=O)N1C[C@H]3C(=O)c4c(O)c(C)c(OC)c(O)c4[C@@H]([C@@H]1C2)N3C [saframycin D] |  | 20
COC1=C(C)C(=O)C2=C(C1=O)[C@@H]1[C@@H]3CC4=C(C(=O)C(OC)=C(C)C4=O)[C@H](CNC(=O)C(C)=O)N3C[C@H]([C@H]2OC)N1C [saframycin C] |  | 20
COC1=C(C)C(=O)C2=C(C1=O)C1C3CC4=C(C(=O)C(OC)=C(C)C4=O)C(CNC(=O)C(C)=O)N3CC(C2)N1C (centres unmarked) [saframycin B] | 5 | 
COC1=C(C)C(=O)C2=C(C1=O)[C@H](CNC(=O)C(C)=O)N1C[C@@H]3[C@@H](O)c4c(O)c(C)c(OC)c(O)c4[C@H]([C@@H]1C2)N3C [saframycin E] |  | 20
